Source: the supplement of paper PMC4604168 (melanoma cell lines)
The other results are listed elsewhere or left out. Most values come without repeats; read them as rough.

What was measured:
Test in all cases: cell count relative to DMSO control; melanoma cells; higher = more viable cells
Conditions in all cases: library dose: low library concentration; 72 h
MZ2-MEL = system: MZ2-MEL
MeWo = system: MeWo
RPMI7951 = system: RPMI7951
RVH-421 = system: RVH-421
SkMel28 = system: SkMel28
SkMel2 = system: SkMel2
SkMel30 = system: SkMel30
UACC62 = system: UACC62
WM115 = system: WM115
WM1716 = system: WM1716
WM1745 = system: WM1745
WM3526 = system: WM3526
WM3619 = system: WM3619
WM451Lu = system: WM451Lu
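Further: cell number obtained by counting DAPI-stained nuclei in high-throughput microscope images with image analysis software, screen run in 1,536-well plates.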

Row | Structure (SMILES) | cell count (MZ2-MEL) | cell count (MeWo) | cell count (RPMI7951) | cell count (RVH-421) | cell count (SkMel28) | cell count (SkMel2) | cell count (SkMel30) | cell count (UACC62) | cell count (WM115) | cell count (WM1716) | cell count (WM1745) | cell count (WM3526) | cell count (WM3619) | cell count (WM451Lu)
1 | COc1ccc(C2=N[C@@H](c3ccc(Cl)cc3)[C@@H](c3ccc(Cl)cc3)N2C(=O)N2CCNC(=O)C2)c(OC(C)C)c1 [Nutlin-3] + C[As](C)SC[C@H](NC(=O)CC[C@H](N)C(=O)O)C(=O)NCC(=O)O [Darinaparsin] (first compound 0.1 µM, partner dose 0.4 µM) | 104% | 95.5% | 102% | 83.6% | 78.6% | 112% | 126% | 80.1% | 86.5% | 96.5% | 92.7% | 114% | 93.7% | 108%
2 | CCN(CC)CCNC(=O)c1c(C)[nH]c(/C=C2\C(=O)Nc3ccc(F)cc32)c1C [sunitinib] + N.N.[Cl][Pt][Cl] [cisplatin] (first compound 0.4 µM, partner dose 1.6 µM) | 109% | 89.1% | 118% | 109% | 99.8% | 107% | 84.3% | 90.3% | 101% | 122% | 95.7% | 67.1% | 116% | 99.4%
3 | NC1(c2ccc(-c3nc4ccn5c(=O)[nH]nc5c4cc3-c3ccccc3)cc2)CCC1 + N.N.[Cl][Pt][Cl] [cisplatin] (first compound 0.4 µM, partner dose 1.6 µM) | 103% | 85.2% | 90.2% | 79.2% | 68.2% | 90.6% | 93.6% | 62.9% | 78.4% | 87% | 88.9% | 71.8% | 96.7% | 92.4%
4 | Nc1ncn([C@H]2C[C@H](O)[C@@H](CO)O2)c(=O)n1 [decitabine] + C[As](C)SC[C@H](NC(=O)CC[C@H](N)C(=O)O)C(=O)NCC(=O)O [Darinaparsin] (first compound 0.1 µM, partner dose 0.4 µM) | 86.7% | 102% | 85.2% | 97.2% | 80.6% | 86.3% | 113% | 80.6% | 77% | 89.5% | 101% | 113% | 90.6% | 112%
5 | Cn1sc(=O)n(Cc2ccccc2)c1=O + N.N.[Cl][Pt][Cl] [cisplatin] (first compound 0.4 µM, partner dose 1.6 µM) | 93.5% | 97.3% | 90.9% | 86.7% | 106% | 83.9% | 81.4% | 91.8% | 94.4% | 85.1% | 92.4% | 88.3% | 97.8% | 101%
6 | Cc1cn(-c2cc(NC(=O)c3ccc(C)c(Nc4nccc(-c5cccnc5)n4)c3)cc(C(F)(F)F)c2)cn1 [nilotinib] + N.N.[Cl][Pt][Cl] [cisplatin] (first compound 0.2 µM, partner dose 1.6 µM) | 83.8% | 107% | 79.8% | 94.8% | 78.1% | 86.1% | 83.5% | 94% | 91% | 101% | 90.3% | 88.9% | 75.6% | 100%
7 | O=C(Nc1cc(C(F)(F)F)cc(C(F)(F)F)c1)c1cc(Cl)ccc1O + N.N.[Cl][Pt][Cl] [cisplatin] (first compound 0.016 µM, partner dose 1.6 µM) | 97.9% | 106% | 94.1% | 86.2% | 130% | 90.8% | 110% | 113% | 101% | 97.6% | 98.6% | 93.1% | 118% | 108%
8 | Cn1sc(=O)n(Cc2ccccc2)c1=O + C[As](C)SC[C@H](NC(=O)CC[C@H](N)C(=O)O)C(=O)NCC(=O)O [Darinaparsin] (first compound 0.4 µM, partner dose 0.4 µM) | 106% | 108% | 103% | 99.8% | 113% | 93% | 99.1% | 107% | 112% | 102% | 93% | 115% | 84% | 93.5%
9 | Cc1ccc(Nc2nccc(N(C)c3ccc4c(C)n(C)nc4c3)n2)cc1S(N)(=O)=O [Pazopanib] + Cn1cc(C2=C(c3cn(C4CCN(Cc5ccccn5)CC4)c4ccccc34)C(=O)NC2=O)c2ccccc21 [Enzastaurin] (first compound 0.4 µM, partner dose 0.8 µM) | 74.6% | 120% | 82% | 88.7% | 92.1% | 97% | 91.4% | 94.3% | 104% | 89.7% | 87.3% | 91.3% | 107% | 105%
10 | CCN(CC)CCNC(=O)c1c(C)[nH]c(/C=C2\C(=O)Nc3ccc(F)cc32)c1C [sunitinib] + C[As](C)SC[C@H](NC(=O)CC[C@H](N)C(=O)O)C(=O)NCC(=O)O [Darinaparsin] (first compound 0.4 µM, partner dose 0.4 µM) | 120% | 71.7% | 95.5% | 106% | 96% | 120% | 89.5% | 96.7% | 107% | 130% | 92.9% | 88.7% | 102% | 93.7%
11 | C=C(c1ccc(C(=O)O)cc1)c1cc2c(cc1C)C(C)(C)CCC2(C)C [Bexarotene] + C[As](C)SC[C@H](NC(=O)CC[C@H](N)C(=O)O)C(=O)NCC(=O)O [Darinaparsin] (first compound 2 µM, partner dose 0.4 µM) | 92.8% | 78.9% | 72.4% | 97.4% | 81.8% | 88.9% | 90.4% | 101% | 99.3% | 87.5% | 87.9% | 86.8% | 76.4% | 85.1%
12 | Nc1nc(F)nc2c1ncn2[C@@H]1O[C@H](CO)[C@@H](O)[C@@H]1O [fludarabine] + C[As](C)SC[C@H](NC(=O)CC[C@H](N)C(=O)O)C(=O)NCC(=O)O [Darinaparsin] (first compound 0.2 µM, partner dose 0.4 µM) | 105% | 24.7% | 73.2% | 85.2% | 66.1% | 5.11% | 16.6% | 78.6% | 82.7% | 97.7% | 114% | 22.5% | 91.9% | 45.2%
13 | COc1cc([C@@H]2c3cc4c(cc3[C@@H](O[C@@H]3O[C@@H]5CO[C@@H](C)O[C@H]5[C@H](O)[C@H]3O)[C@H]3COC(=O)[C@H]23)OCO4)cc(OC)c1O [etoposide] + C[As](C)SC[C@H](NC(=O)CC[C@H](N)C(=O)O)C(=O)NCC(=O)O [Darinaparsin] (first compound 0.02 µM, partner dose 0.4 µM) | 94.6% | 104% | 111% | 83.2% | 91.1% | 84.1% | 91.4% | 83.6% | 97.1% | 109% | 104% | 99.6% | 110% | 108%
14 | Cn1c(=O)n(-c2ccc(C(C)(C)C#N)cc2)c2c3cc(-c4cnc5ccccc5c4)ccc3ncc21 + C[As](C)SC[C@H](NC(=O)CC[C@H](N)C(=O)O)C(=O)NCC(=O)O [Darinaparsin] (first compound 0.004 µM, partner dose 0.4 µM) | 99.9% | 79.6% | 107% | 105% | 65.7% | 87.9% | 82.4% | 94.7% | 90.5% | 84.5% | 106% | 84.1% | 90.6% | 100%
15 | CC1(C)CCC(c2ccc(Cl)cc2)=C(CN2CCN(c3ccc(C(=O)NS(=O)(=O)c4ccc(N[C@H](CCN5CCOCC5)CSc5ccccc5)c(S(=O)(=O)C(F)(F)F)c4)cc3)CC2)C1 + C[As](C)SC[C@H](NC(=O)CC[C@H](N)C(=O)O)C(=O)NCC(=O)O [Darinaparsin] (first compound 0.4 µM, partner dose 0.4 µM) | 103% | 75.6% | 68.2% | 69.8% | 92.4% | 100% | 90.2% | 105% | 98.4% | 89.8% | 15.7% | 108% | 96.3% | 80.5%
16 | CCCCCCCCCCCCCCCCCCOP(=O)([O-])OC1CC[N+](C)(C)CC1 [Perifosine] + N.N.[Cl][Pt][Cl] [cisplatin] (first compound 0.4 µM, partner dose 1.6 µM) | 92.8% | 103% | 75.8% | 97% | 99.8% | 104% | 109% | 87.1% | 96.8% | 92.2% | 113% | 91.5% | 89.7% | 102%
17 | O=C(Nc1cc(C(F)(F)F)cc(C(F)(F)F)c1)c1cc(Cl)ccc1O + Cn1cc(C2=C(c3cn(C4CCN(Cc5ccccn5)CC4)c4ccccc34)C(=O)NC2=O)c2ccccc21 [Enzastaurin] (first compound 0.016 µM, partner dose 0.8 µM) | 120% | 113% | 114% | 101% | 122% | 113% | 130% | 125% | 106% | 122% | 90.8% | 130% | 105% | 122%
18 | N#CC[C@H](C1CCCC1)n1cc(-c2ncnc3[nH]ccc23)cn1 [ruxolitinib] + C[As](C)SC[C@H](NC(=O)CC[C@H](N)C(=O)O)C(=O)NCC(=O)O [Darinaparsin] (first compound 1 µM, partner dose 0.4 µM) | 92.4% | 95.1% | 106% | 87% | 107% | 91.4% | 92.9% | 107% | 105% | 105% | 99.8% | 97% | 91.7% | 87.1%
19 | O=c1[nH]nc(Sc2ncc([N+](=O)[O-])s2)n1-c1ccc2c(c1)OCCO2 + N.N.[Cl][Pt][Cl] [cisplatin] (first compound 0.2 µM, partner dose 1.6 µM) | 102% | 103% | 90% | 70.8% | 90.9% | 97.7% | 111% | 89% | 106% | 106% | 91.8% | 91.1% | 119% | 85.2%
